# Laboratory results taken from PubChem BioAssay AID1347430 (National Center for Advancing Translational Sciences (NCATS), 2020).
# Where “and” joins values, the source holds several entries; their conditions need not be identical. Identical values can stand only once. Among all 91,000 compounds or so, about 130 (0.14%) were called active. The inconclusive results got no clear call from the source; some entries with a clear call stand among them for comparison. The call rests on the fitted dose curve; in most records, active means well fitted inhibition curve with a large enough effect; inconclusive means small, poorly fitted or top-dose-only effect; inactive means flat fitted curve, though single readings scatter. Potencies beside an inconclusive call are fits to weak or partial responses and may not hold up.
# Test system: Uracil-DNA glycosylase
# Assay: Primary qHTS assay for inhibitors of Activation Induced Cytidine Deaminase (AID): UDG Counterscreen signal; further: nearly all actives have a fitted effect of over 65% in size
# Conditions: FRET deamination/UDG coupled assay, UDG read, 4 h; activity change, negative = inhibition: at 115 µM (top of the series)
# On the % scale 0 is the no-effect control and ±100 the full control effect; potency means the concentration at half of the fitted maximal effect; tags describe the fitted curve by direction and shape.
Compound,Potency,"activity change, negative = inhibition"
Cc1ccc(S(=O)(=O)c2nc(-c3ccco3)oc2SC(C)C)cc1,"inconclusive: 22.4 µM [inhibitor, partial curve, poor fit]",–
O=C(CCn1c(=O)oc2cc(S(=O)(=O)N3CCCC3)ccc21)Nc1ccc(OC(F)(F)F)cc1,–,inactive: -11.3%
O=C(NCCc1ccc2c(c1)OCCO2)c1ccc(NC(=O)c2cccs2)cc1,–,inactive: -18.1%
Cc1nn(C)c2c1c(-c1ccccc1)cc(=O)n2C(C)C(=O)NCCc1ccc(Cl)cc1 (stereo not given),"inconclusive: 89.1 µM [inhibitor, single point]",–
N#CC(Cc1ccccc1CO)c1nc2ccccc2s1 (stereo not given),–,inactive: 0.369%
Cc1nc2c(-c3ccccc3)c(C)[nH]n2c(=O)c1Cc1ccc(C(C)C)cc1,active: 79.4 µM,–
CCC(=O)Nc1ccc2nc(-c3ccccc3C)oc2c1,"inconclusive: 89.1 µM [inhibitor, single point]",–
Cc1ccc(OCCCC(=O)Nc2sc3c(c2C(N)=O)CCCC3)cc1,"inconclusive: 100 µM [inhibitor, single point]",–
CCS(=O)(=O)c1nc(-c2ccc(F)cc2)cc(C(F)(F)F)n1,–,inactive: 0.855%
CC(Sc1n[nH]c(=O)n1C1CC1)C(=O)c1ccc(Br)cc1 (stereo not given),–,inactive: 3.88%
COc1ccc(NC(=O)c2ccco2)cc1NC(=O)COc1ccccc1Cl,–,inactive: 2.62%
CCc1cccc(NC(=O)C2CCN(S(=O)(=O)c3cccc(-c4noc(C)n4)c3)CC2)c1,active: 79.4 µM,–
Cc1ccc(S(=O)(=O)c2nc(-c3cccc(Cl)c3)oc2NCc2ccccc2)cc1,"inconclusive: 63.1 µM [inhibitor, partial curve, poor fit]",–
Cc1ccc(C)c(C(=O)Nc2ccc(Cl)c(C(F)(F)F)c2)c1,–,inactive: -8.13%
Cc1c(Cl)ccc2sc(N3CCN(C(=O)CS(=O)(=O)c4ccccc4)CC3)nc12,"inconclusive: 79.4 µM [inhibitor, partial curve, poor fit]",–
CCn1cc2nc(SCc3cccc(C(F)(F)F)c3)n(Cc3ccc(C)cc3)c(=O)c2n1,"inconclusive: 22.4 µM [inhibitor, full curve]",–
COc1ccc(OC)c(NC(=O)COCc2cc(-c3ccc(F)cc3)on2)c1,"inconclusive: 79.4 µM [inhibitor, partial curve, poor fit]",–
CC(C)c1ccc(NC(=O)CSC2=Nc3ccccc3C3=NC(CC(=O)NC4CCCCC4)C(=O)N23)cc1 (stereo not given),"inconclusive: 89.1 µM [inhibitor, single point]",–
O=C(Nc1ccc(-n2nncc2-c2ccccc2)cc1)c1cccc(F)c1,"inconclusive: 89.1 µM [inhibitor, single point]",–
Cc1ccccc1COC(=O)c1cnccn1,–,inactive: -4.95%
COC(=O)C(C)Sc1nc2c(cnn2-c2ccc(F)cc2)c(=O)[nH]1 (stereo not given),"inconclusive: 100 µM [inhibitor, single point]",–
O=C(O)C/C(=C/c1cccs1)c1nc2ccccc2s1,–,inactive: 7.12%
Cc1ccc2c(=O)cc(C(=O)Nc3ccc(S(=O)(=O)N(C)Cc4ccccc4)cc3)oc2c1C,"inconclusive: 35.5 µM [inhibitor, single point]",–
CCOC(=O)C1CCCN(S(=O)(=O)c2cc3c4c(c2)CC(=O)N4CCC3)C1 (stereo not given),"inconclusive: 89.1 µM [inhibitor, single point]",–

Compound,Potency,"activity change, negative = inhibition"
COc1cccc(CNC(=O)c2oc3c(c2C)-c2nn(Cc4cccc(Cl)c4)cc2CC3)c1,–,inactive: -18.3% [at 57.5 µM]
O=C(COc1cc2oc(=O)cc(-c3ccccc3)c2cc1Cl)NC1CC1,"inconclusive: 89.1 µM [inhibitor, single point]",–
COc1ccc(Br)cc1/C=C(\C#N)c1nc2ccccc2[nH]1,–,inactive: -14.6%
CCn1cnc2c1c(=O)n(CC(=O)O)c(=O)n2Cc1ccccc1,"inconclusive: 100 µM [inhibitor, single point]",–
CC(=O)c1cccc(NS(=O)(=O)c2ccc3[nH]c4c(c3c2)CCCCCC4)c1,–,inactive: 7.97% [at 57.5 µM]
Cn1c(=O)c2c(-c3ccccc3)n3c(c2n(C)c1=O)C(c1ccccc1[N+](=O)[O-])Nc1ccccc1-3 (stereo not given),"inconclusive: 89.1 µM [inhibitor, partial curve, poor fit]",–
O=C(COC(=O)c1cc(-c2cccs2)nc2ccccc12)c1ccccc1,"inconclusive: 89.1 µM [inhibitor, single point]",–
CC1CCN(c2ncnc3c2cnn3-c2ccc(F)cc2)CC1,"inconclusive: 89.1 µM [inhibitor, single point]",–
CCc1ccc(-c2nc(CN3CCC(C(=O)NCCc4ccc(Cl)cc4)CC3)c(C)o2)cc1,"inconclusive: 100 µM [inhibitor, single point]",–
CCCCN1CC(c2nc3ccccc3n2CCCCOc2ccccc2C)CC1=O (stereo not given),"inconclusive: 79.4 µM [inhibitor, partial curve, poor fit]",–
COc1ccccc1N1CCN(c2nc3ccc(C(=O)c4ccccc4)cc3n3c(C)nnc23)CC1,"inconclusive: 89.1 µM [inhibitor, single point]",–
O=c1c2sccc2ncn1Cc1coc(-c2cccc(F)c2)n1,–,inactive: -2.26%
CCC(Sc1nc2ccccc2c2nc(CCc3c(C)n[nH]c3C)nn12)C(=O)Nc1ccc(F)cc1 (stereo not given),"inconclusive: 89.1 µM [inhibitor, single point]",–
O=C(CSc1nnc(Cc2cccs2)n1C1CC1)N1CCN(c2ccccc2)CC1,"inconclusive: 89.1 µM [inhibitor, single point]",–
COc1ccc(CC(=O)NNC(=O)COCC(=O)Nc2ccc(C#N)cc2)cc1,–,inactive: -3.23%
Clc1cccc(-n2ncc3c(NC4CCCCC4)ncnc32)c1,"inactive and inconclusive: 79.4 µM [inhibitor, partial curve]",–
Cc1ccc(NC(=O)CSc2nc3c(c(=O)[nH]2)CCC3)cc1,–,inactive: -1.5%
Cc1ccc(-c2cn3c4ccccc4nc3n2CCCN2CCCC2)cc1,–,inactive: -11.3%
COc1cccc(CNC(=O)c2ccc(-c3nc(CSc4ccccc4)c(C)o3)cc2)c1,"inconclusive: 100 µM [inhibitor, single point]",–
COc1ccc(C(Nc2ccccn2)c2ccc3ccc(C)nc3c2O)cc1C (stereo not given),"inconclusive: 44.7 µM [inhibitor, partial curve]",–
Cc1cccc(N2CCN(C3=C(c4ccccc4)C(=O)c4ccccc43)CC2)c1C,"inconclusive: 89.1 µM [inhibitor, partial curve, poor fit]",–
CCOC(=O)c1[nH]c(C)c(CNCCc2ccc(OC)c(OC)c2)c1C,–,inactive: -4.92%
O=C(O)CC1CC(=O)OC1=O (stereo not given),–,inactive: -0.925%
CN(C)S(=O)(=O)c1ccc(-c2nc(C#N)c(N3CCN(c4cccc(Cl)c4)CC3)o2)cc1,"inconclusive: 79.4 µM [inhibitor, partial curve, poor fit]",–

Compound,Potency,"activity change, negative = inhibition"
CCC(C)c1ccc(NC(=O)COC(=O)CCC2CCCC2)cc1 (stereo not given),–,inactive: -6.56%
CNc1c(NC(=O)Nc2ccc(Br)cc2F)c(=O)oc2ccccc12,"inconclusive: 89.1 µM [inhibitor, single point]",–
CCC(C)C(=O)OC(C(=O)NC(N)=O)C(C)C (stereo not given),–,inactive: -4.25%
Cc1ccc(C)c(S(=O)(=O)c2nnn3c2nc(N2CCN(C)CC2)c2sccc23)c1,"inconclusive: 89.1 µM [inhibitor, single point]",–
CSCCCNC(=S)Nc1ccc(F)c(Cl)c1,–,inactive: 5.38%
COc1ccccc1CN1CCC(CNC(=O)c2cnn(-c3ccccc3Cl)c2C2CCN(C(=O)OC(C)(C)C)CC2)CC1,"inconclusive: 79.4 µM [inhibitor, single point]",–
CC(=O)c1cc2c(ccc3ccccc32)o1,"inconclusive: 25.1 µM [inhibitor, partial curve]",–
Cc1ccc(C)c(NC(=O)C(CC(C)C)N2Cc3ccccc3C2=O)c1 (stereo not given),"inconclusive: 89.1 µM [inhibitor, partial curve, poor fit]",–
Cc1cccc(C)c1NC(=O)c1cc(S(=O)(=O)N2CCc3ccccc3C2)ccc1F,"inconclusive: 79.4 µM [inhibitor, partial curve, poor fit]",–
Cc1cccc(NC(=O)CCN2CCN(Cc3cccc4ccccc34)CC2)c1,active: 79.4 µM,–
CNCCC(F)(F)F,–,inactive: -1.7%
Cc1ccc(NC(=O)c2cnc(N3CCCC3)nc2C)cc1F,"inconclusive: 100 µM [inhibitor, single point]",–
Cc1ccc(CN(C(=O)c2ccc(C(C)(C)C)cc2)c2ccccn2)o1,"inconclusive: 89.1 µM [inhibitor, single point]",–
O=Cc1cccn1-c1ccc(Cl)cc1Cl,–,inactive: -9.87%
O=C(O)CSCc1ccncc1,–,inactive: -3.8%
Cc1ccccc1-c1nc(CN2CCCC(C(=O)NCc3ccc(Cl)cc3)C2)c(C)o1 (stereo not given),"inconclusive: 89.1 µM [inhibitor, partial curve]",–
COc1ccc([N+](=O)[O-])cc1NC(c1nnc(-c2ccccc2)o1)c1ccccc1F (stereo not given),"inconclusive: 79.4 µM [inhibitor, partial curve, poor fit]",–
CC(C)CNC(=O)NC(=O)CN(C)C1CCCCCC1,–,inactive: 2.62%
COc1ccc(NC(=O)/C=C\C(=O)N(c2ccc(C(C)C)cc2)C(C(=O)NCc2ccco2)c2ccc(C)cc2)cc1 (stereo not given),–,inactive: -18.9%
CCOC(=O)c1cccc(NC(=O)c2ncoc2-c2ccco2)c1,"inconclusive: 89.1 µM [inhibitor, partial curve, poor fit]",–
CCn1nc(C)c(CCN(C)C(=O)Nc2cccc(Cl)c2C)c1C,"inconclusive: 89.1 µM [inhibitor, single point]",–
CCn1cc(CNC(=O)c2cc(-c3ccc(C)cc3)nc3ccc(Br)cc23)c(C)n1,"inconclusive: 89.1 µM [inhibitor, single point]",–
